Measured values published in PubChem BioAssay AID360 (National Center for Advancing Translational Sciences (NCATS), 2006).
Out of some 48,000 compounds screened, about 550 (1.1%) were called active. About 4% were inconclusive and are not listed. No stated cut-off is given here; in the data, active means potency below about 15 µM; inconclusive means mostly about 16 µM to 33 µM; inactive means weaker than that. Some of the results follow.

Target: Lysosomal acid glucosylceramidase (Homo sapiens) (UniProt P04062)
Assay: Glucocerebrosidase;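 further: the screen sought inhibitors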
Conditions: purified enzyme, resorufin glucoside fluorescence (screen aimed at inhibitors), 20 min
Method in brief: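 Compounds titrated against 0.2 nM normal enzyme, 30 uM resorufin beta-D-glucopyranoside substrate, citrate/phosphate buffer with taurocholate and tween-20, pH 5.9. Reaction ran 20 min at room temperature; fluorescence (Ex 548/Em 600) gave AC50.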
Potency means the concentration at half of the fitted maximal effect.

UniProt P04062, sequence (P04062 whole entry, looked up): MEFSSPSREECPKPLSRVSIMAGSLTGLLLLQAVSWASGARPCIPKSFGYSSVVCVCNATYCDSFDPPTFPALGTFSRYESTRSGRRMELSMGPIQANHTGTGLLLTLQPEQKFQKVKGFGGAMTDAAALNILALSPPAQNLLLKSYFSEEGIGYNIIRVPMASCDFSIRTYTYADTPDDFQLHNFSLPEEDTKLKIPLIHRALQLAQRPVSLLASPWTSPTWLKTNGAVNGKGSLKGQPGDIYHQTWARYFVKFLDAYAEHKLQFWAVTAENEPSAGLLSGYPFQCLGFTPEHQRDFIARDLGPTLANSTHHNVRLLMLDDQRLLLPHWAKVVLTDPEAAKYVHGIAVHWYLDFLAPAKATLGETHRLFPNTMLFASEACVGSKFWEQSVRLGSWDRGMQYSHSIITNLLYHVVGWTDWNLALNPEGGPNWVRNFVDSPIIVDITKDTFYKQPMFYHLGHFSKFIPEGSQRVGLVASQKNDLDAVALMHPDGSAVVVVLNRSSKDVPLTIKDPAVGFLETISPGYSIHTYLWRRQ

Potency, inactive:
COC(=O)c1cc(-c2c(C)nn(-c3ccccc3)c2C)n[nH]1 > 76.9 µM
COc1ccc(OC)c(NC(=O)CSCc2cnn(-c3ccccc3)c2-n2cccc2)c1 > 76.9 µM
CC1=CC(C)(C)N2C(=O)C3(C(C#N)=C(N)OC4=C3C(=O)CC(C)(C)C4)c3cccc1c32 (stereo not given) > 76.9 µM
COc1ccc(C2NC(C(=O)O)CS2)cc1COCC(F)(F)F (stereo not given) > 76.9 µM
CCOC(=O)c1c(CN2CCN(C)CC2)oc2ccc(O)cc12 > 76.9 µM
O=C(NCc1ccco1)C(c1ccccc1)N(CC1CCCO1)C(=O)Cn1nnc2ccccc21 (stereo not given) > 76.9 µM
O=C(COc1ccccc1Cl)N1CCN(c2ccc(F)cc2)CC1 > 76.9 µM
CS(=O)(=O)N1CCc2cc(C(=O)N3CCOCC3)ccc21 > 76.9 µM
Cc1ccccc1OCc1nc(-c2ccccc2)no1 > 76.9 µM
O=C(NCc1ccccc1)C1C2C=CC3(CN(Cc4cccnc4)C(=O)C13)O2 (stereo not given) > 76.9 µM
O=C(c1ccccc1)c1nc[nH]c1C(=O)Nc1ccccn1 > 76.9 µM
CCN(C(=O)COC(=O)c1cnc(C)cn1)C1CCCCC1 > 76.9 µM
Cc1ccc2cc(CN(Cc3cccs3)Cc3nnnn3CC3CCCO3)c(=O)[nH]c2c1C (stereo not given) > 76.9 µM
O=C(NC1CC1)C1C2C3C4CC5C3C5C4C12 (stereo not given) > 76.9 µM
CCC(OC(=O)c1nsc(Cl)c1Cl)C(=O)NCc1ccco1 (stereo not given) > 76.9 µM
COC(=O)c1ccc(CSc2nnc(Nc3ccccc3OC)s2)o1 > 76.9 µM
Cc1cc(NC(=O)c2ccccc2-c2ccccc2C(=O)O)no1 > 76.9 µM
Cc1ccc(-n2c(C)cc(C(=O)OCC(=O)N(C)C3CCS(=O)(=O)C3)c2C)cc1 (stereo not given) > 76.9 µM
CCOCC(=O)Nc1nc2ccc(S(C)(=O)=O)cc2s1 > 76.9 µM
Cc1nnc(NC(=O)CSc2ccccn2)s1 > 76.9 µM
Cc1c(NC(=O)CSc2ccc3c(c2)OCCO3)c(=O)n(-c2ccccc2)n1C > 76.9 µM
Cc1cccc2nc(CSc3nnnn3-c3ccccc3)cn12 > 76.9 µM
CN(C)S(=O)(=O)c1cccc(-c2nnc(SCc3cc(Cl)cc4c3OCOC4)n2N)c1 > 76.9 µM
CC(C)(C)c1ccc(OCCn2ccccc2=O)cc1 > 76.9 µM
CCc1noc(C)c1C(=O)N1CC(C)OC(C)C1 (stereo not given) > 76.9 µM
